About 1,700 (3.3%) of roughly 52,000 compounds were called active. Cut-off read from the data, not from the text of the source: active = survival mostly below about 52% (no sharp cut-off); inactive = mostly above about 56%. The list shows a part of the results.

This experiment relates to Wild type. The experiment is described as follows: S. aureus survival, RN4220 and DeltatarO strains – OD600, teichoic acid synthesis inhibitors, primary screen (AID 463173). The conditions noted are these: S. aureus RN4220 wild type/DeltatarO growth, OD600, 18 h, active compounds read low, screened at 18.75 µg/mL (by protocol).
For `COc1ccc(-c2cc(C(F)(F)F)nc(S(=O)(=O)CCCC(=O)Nc3ccccc3C(F)(F)F)n2)cc1OC`, the survival is inactive: 89%.
The same measure for `c1ccc(CCNc2ccccc2)cc1`: inactive: 111%.
The same measure for `CN(C)c1ccc(CNc2nc(-c3ccco3)nn2S(=O)(=O)c2ccc(Cl)cc2)cc1`: inactive: 109%; for `Cc1cc(=O)n2c(C(=O)Nc3ccc(C)c(C)c3)c(C(=O)Nc3ccccc3)sc2n1`: inactive: 69%.
The same measure for `CCc1cccc(C)c1NC(=O)C1CCCN(S(=O)(=O)c2cccc3nsnc23)C1` (configuration not stated): inactive: 88%; for `NC(=O)C1CCCN1S(=O)(=O)c1ccc(F)cc1` (configuration not stated): inactive: 110%.
As to `CCN(C(=O)CSc1nnc(-c2ccc(Cl)cc2)o1)c1ccccc1`, the survival is inactive: 66%.
The same measure for `CC1CCCCC1NC(=O)CSc1nccc(=O)[nH]1` (configuration not stated): inactive: 96%.
On to `COC(=O)c1ccc(CSc2nc3c([nH]c4ccccc43)c(=O)n2-c2cccc(OC)c2)o1`, for which the survival was inactive: 47%.
Next, `Cc1ccnc(NS(=O)(=O)c2ccc(NC(=O)c3cc(=O)c4ccc(C)c(C)c4o3)cc2)n1`: inactive: 85%; `CNCCCc1cc(C)ccc1O`: inactive: 105%.
Next, `Cc1ccc2nc(N3CCN(C(=O)C4COc5ccccc5O4)CC3)sc2c1` (configuration not stated): inactive: 71%.
On to `COc1ccc(CNC(=O)c2cc3c(=O)n(Cc4cccs4)ccc3nc2C)cc1`, for which the survival is active: 10%.
Next, `COc1ccc(-c2nc3ccccc3o2)cc1NC(=O)c1ccc(N2CCC(C)CC2)c([N+](=O)[O-])c1`: inactive: 71%; `CC(Sc1nnc(-c2ccc3c(c2)OCO3)o1)C(N)=O` (configuration not stated): inactive: 94%.
For the molecule `Cc1nn(Cc2ccccc2)c(C)c1NC(=O)c1cc(C(C)C)on1`, the survival was inactive: 77%.
Turning to `CCOC(=O)c1sc(NC(=O)c2nc(SCC)ncc2Cl)c(C(=O)OCC)c1C`, the survival is inactive: 118%.
Next, `CN(C)CCNC(=O)Cc1ccc(NC(=O)N2CCCCc3ccccc32)cc1`: inactive: 75%; `CCOC(=O)c1cc(-c2ccc(C)cc2)n(CC(=O)Nc2cccc(C(C)=O)c2)c1C`: inactive: 124%; `COc1ccc(Cl)cc1NC(=O)c1c(C(=O)Nc2cccc(C)c2C)sc2nc(C)cc(=O)n12`: inactive: 89%.
The same measure for `Cc1ccc(C(=O)c2cn(Cc3ccc(F)cc3)c3nc(C)ccc3c2=O)cc1`: inactive: 95%; for `COc1ccc(OCc2nnc(SCC(=O)N3C(C)CCCC3C)o2)cc1` (configuration not stated): inactive: 103%; for `COCCCn1c(=N)c(S(=O)(=O)c2ccccc2)cc2c(=O)n3cccc(C)c3nc21`: inactive: 75%.
Consider `CC1(C)CC(=O)c2cc(C(=O)Nc3ccc(Br)cc3)c(=O)n(-c3ccc(Cl)cc3)c2C1`, for which the survival is inactive: 74%.
Next, `COc1ccccc1OCC(O)CN1CCOCC1` (configuration not stated): inactive: 105%.
Next, `Cc1oc(-c2ccccc2F)nc1Cn1c(SCc2ccccc2F)nc2ccncc21`: inactive: 73%; `CCn1cc2nc(SCc3cc(C)ccc3C)n(Cc3ccc(C)cc3)c(=O)c2n1`: inactive: 66%; `Cc1ccccc1OCc1nc2c3cnn(-c4ccccc4Br)c3ncn2n1`: inactive: 87%.
Next, `COc1ccccc1N1CCN(C(=O)CCSCc2ccccc2F)CC1`: inactive: 76%; `COc1ccc(Nc2oc(/C=C/c3ccc(F)cc3)nc2C#N)cc1`: inactive: 104%; `Cc1ccc(C2c3cccn3CCN2S(=O)(=O)c2ccc([N+](=O)[O-])cc2)cc1` (configuration not stated): inactive: 95%.
On to `COc1ccc(N2CC(NC(=O)c3cccs3)CC2=O)cc1OC` (configuration not stated), for which the survival is inactive: 72%.
Next, `O=S(=O)(NCCc1csc(-c2ccc(F)cc2)n1)c1ccc(F)cc1F`: inactive: 112%; `COC(=O)c1cccc(NC(=O)COC(=O)c2ccco2)c1`: inactive: 100%.
Regarding `CCc1ccc(-c2[nH]c3c(c2-c2c(-n4cccc4)n(C)c(=O)[nH]c2=O)c(=O)[nH]c(=O)n3C)cc1`, the survival was inactive: 93%.
Next, `CC(=O)Nc1ccc(NS(=O)(=O)c2ccc3c(c2)CCCN3C(C)=O)cc1`: inactive: 68%; `O=C(Nc1nnc(S(=O)(=O)N2CCCCC2)s1)c1ccc(Cl)cc1`: inactive: 48%; `COc1ccc(-n2ncc(C(=O)Nc3ccc(C)cc3Cl)c2C2CCN(C(=O)OC(C)(C)C)CC2)cc1`: inactive: 51%.
The same measure for `CCCCn1c(SCC(=O)Nc2ccccc2)nc2ccccc2c1=O`: inactive: 99%.
Turning to `CCN(CC)C(=O)CSc1nnc(COc2ccc(Br)cc2)o1`, the survival was inactive: 102%.
As for `O=C(NCC1CCCO1)c1cccc(C(=O)NCC2CCCO2)c1` (configuration not stated), the survival is inactive: 101%.
On to `CCN(CC)CCNC(=O)C1CCCN(c2nnc(C)c3c(C)n(-c4ccc(Cl)cc4)nc23)C1` (configuration not stated), for which the survival is inactive: 126%.
Next, `CCOc1ccc(-c2cn3c(n2)sc2cc(C(=O)NCCC4=CCCCC4)ccc23)cc1`: inactive: 103%.
Next, `CCOc1ccc(NC(=O)CSc2nnc(CC)c(CC)n2)cc1`: inactive: 58%; `COc1ccccc1CNC(=O)c1ccc(NC(=O)N2CC(C)Sc3ccccc32)cc1` (configuration not stated): inactive: 80%.
Next, `Cc1cc(C=C(C#N)C#N)c(C)n1-c1ccc(S(N)(=O)=O)cc1`: inactive: 118%.
Take `Cc1cccc(C)c1NC(=O)C1CCCN(S(=O)(=O)c2c(C)noc2/C=C/N(C)C)C1` (configuration not stated): the survival was inactive: 71%.
In the case of `COc1ccc(S(=O)(=O)NCC(c2ccco2)S(=O)(=O)c2ccc(C)cc2)cc1C` (configuration not stated), the survival was inactive: 101%.
For `Cc1ccc(-c2nc3scc(CCNS(=O)(=O)c4ccc(C)c(C)c4)n3n2)cc1`, the survival is inactive: 55%.
Next, `Cc1ccc(-c2noc(-c3cccnc3NCc3ccc(Cl)cc3)n2)cc1`: inactive: 88%; `Cc1cccc(OCC(=O)Nc2ccc(C(=O)OCc3cc(=O)n4nc(C5CC5)sc4n3)cc2)c1`: active: -4%; `COC(=O)c1ccc(NC(=O)CSc2ccc(-c3cccs3)nn2)cc1`: inactive: 89%.
The same measure for `CCOC(=O)c1cc(-c2ccc(C)cc2)n(CCC(=O)NCc2ccccc2)c1C`: inactive: 125%; for `O=C(NCCc1nc2ccccc2n1CCOc1ccc(Cl)cc1)C1CCCCC1`: inactive: 20%; for `COc1ccc2cc(S(=O)(=O)c3ccccc3F)c(=O)oc2c1`: inactive: 73%.
Next, `CCc1ccc(NC(=O)C(Cc2ccccc2)NS(=O)(=O)c2ccc3c(c2)CCN3C(C)=O)cc1` (configuration not stated): inactive: 97%; `Cc1cc(C)c(NC(=O)c2cc(CN3CCOCC3)on2)c(C)c1`: inactive: 67%.
